The list shows a part of the results. The list includes weakly bound sequences.

This assay concerns the target MaxL homodimer (UniProt P61244). In words: universal protein-binding microarray (PBM). The following applies: PBS-based mixture, 10 nM His-tagged protein dimer, 2% milk, 200 ng/uL BSA, 50 ng/uL salmon testes DNA, 0.02% TX-100; detection with Alexa 488 anti-His …; high values mean tight binding; most listed sequences are background and not binding sites; double strand, one strand shown.
Chain of UniProt P61244 (P61244 whole entry): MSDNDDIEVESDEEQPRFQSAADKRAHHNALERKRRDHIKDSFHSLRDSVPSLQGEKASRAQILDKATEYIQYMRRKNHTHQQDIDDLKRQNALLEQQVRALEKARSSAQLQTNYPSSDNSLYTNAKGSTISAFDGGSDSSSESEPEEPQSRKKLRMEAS
In the case of ACTGTCCA, the binding signal (normalized occupancy) came out at 0.0772. Then AGACATCA, with 0.0757; and CATGCGTA, with 0.122; and GGACGCCC, with 0.0668.

Consider AATTTACA, for which the binding signal (normalized occupancy) came out at 0.0753.

Take AGAACACT: the binding signal (normalized occupancy) amounted to 0.0724.

Turning to GTGACCAA, the binding signal (normalized occupancy) is 0.0765. Then GCGATACC, with 0.0717. ACGCTGGA: the binding signal (normalized occupancy) is 0.0772.

As for GTGGCACA, the binding signal (normalized occupancy) was determined as 0.0835. The result for ATTGTATC reads 0.0821; that for CAAGCCCG, 0.0691. The result for AGTTTATC reads 0.0786.

As for CTTGTATC, the binding signal (normalized occupancy) worked out at 0.0779.

With AAAGGATT, the binding signal (normalized occupancy) was 0.0758. On to ATAGAACC, for which the binding signal (normalized occupancy) was found to be 0.0766. The result for AACTGCGT reads 0.0718; that for AGTGTTTG, 0.0795; that for CTCGAGAC, 0.0785. With AGAGACCT, the binding signal (normalized occupancy) is 0.0737.

Consider GAAAAACA, for which the binding signal (normalized occupancy) is 0.0763.

ACTTCGTA: the binding signal (normalized occupancy) worked out at 0.0713. As to AGGGGTAC, the binding signal (normalized occupancy) came out at 0.078. The result for GGCGTGAC reads 0.0927; that for CATAGTCA, 0.0807; that for GATCCCGC, 0.0762. Then AATAATAA, with 0.0826; and ATACGGAA, with 0.0756; and CTGGTCCA, with 0.0713. Then AGCGGGTA, with 0.0723; and ATAGCGAA, with 0.0727; and GTTAGCGA, with 0.0772. Turning to ACACTTCT, the binding signal (normalized occupancy) was 0.0773. On to TCCCAGGA, for which the binding signal (normalized occupancy) came to 0.071. In the case of CCCAATTA, the binding signal (normalized occupancy) stood at 0.0804. Turning to CCTGAGGC, the binding signal (normalized occupancy) was 0.0688. On to AAAAGTTT, for which the binding signal (normalized occupancy) was found to be 0.0726. Then AGGCGTTC, with 0.0755.

CTCCCGAG: the binding signal (normalized occupancy) worked out at 0.0647.

Take AGAAGCCC: the binding signal (normalized occupancy) amounted to 0.0653. With TGCCTTAA, the binding signal (normalized occupancy) was 0.0741. The result for GTGGAGTA reads 0.081; that for AATAATAG, 0.082. On to TACCAACA, for which the binding signal (normalized occupancy) turned out to be 0.0837. Regarding ACGCGGTG, the binding signal (normalized occupancy) stood at 0.0842. Turning to AGCGGATA, the binding signal (normalized occupancy) worked out at 0.0736. As to TAAGCGCA, the binding signal (normalized occupancy) stood at 0.0759.

Turning to CAAATAGC, the binding signal (normalized occupancy) was found to be 0.0753. Then GGAATGCA, with 0.0767; and GCACGGCA, with 0.0753. ATAAATAT: the binding signal (normalized occupancy) came to 0.0846.

Consider GCATAGCA, for which the binding signal (normalized occupancy) was found to be 0.0801.

Regarding TATGATAA, the binding signal (normalized occupancy) was 0.0875. Regarding CGAACGTA, the binding signal (normalized occupancy) was determined as 0.0787.

For the sequence AAGGCTCC, the binding signal (normalized occupancy) came to 0.067.

Take AGGATTAC: the binding signal (normalized occupancy) was 0.075. Consider TCTAGTCA, for which the binding signal (normalized occupancy) stood at 0.0729. Then TCGCGGCA, with 0.0731. The result for ATAAGAAC reads 0.0773; that for AAGGAGCC, 0.0741. The result for GCACGCAA reads 0.083; that for CGCCATAA, 0.075. Regarding CGGAAGGA, the binding signal (normalized occupancy) stood at 0.0653. For the sequence AACCGAAG, the binding signal (normalized occupancy) worked out at 0.0674.

With CGACCCTC, the binding signal (normalized occupancy) was 0.0724. Take AAATATTG: the binding signal (normalized occupancy) was 0.0787. As for GTCAGTAA, the binding signal (normalized occupancy) was determined as 0.0717. For the sequence ACACCGAG, the binding signal (normalized occupancy) came to 0.0777.

For AGCCCCCC, the binding signal (normalized occupancy) stood at 0.0757. Regarding ACCCGTTG, the binding signal (normalized occupancy) was determined as 0.0754. Regarding CAATCCGG, the binding signal (normalized occupancy) was 0.0674. Consider CTCCTGGC, for which the binding signal (normalized occupancy) is 0.0733. The result for AATAGCGC reads 0.0806. The result for AAAGACAC reads 0.0773; that for CCCTGCCG, 0.0694; that for CCAAATGC, 0.0781. Take AAGCATAT: the binding signal (normalized occupancy) was 0.0839. The result for ATGCGAAC reads 0.0798.

In the case of GATCACGA, the binding signal (normalized occupancy) is 0.0786.

For the sequence GCATGATA, the binding signal (normalized occupancy) turned out to be 0.0994. Regarding AGGAAAAA, the binding signal (normalized occupancy) was 0.0682.

For the sequence GAATGCGC, the binding signal (normalized occupancy) was found to be 0.075. The result for TGTTATAA reads 0.081; that for GGCGCACC, 0.0742. The result for CAATACGA reads 0.0824; that for GGTCCTGA, 0.0735.

For the sequence TCGTACGA, the binding signal (normalized occupancy) worked out at 0.066. For the sequence GACTTTCA, the binding signal (normalized occupancy) was 0.0708. Then CAATCCCG, with 0.0745; and CCATACGA, with 0.0788.

Turning to GTAATCGA, the binding signal (normalized occupancy) came to 0.0841. Consider CGATGTCA, for which the binding signal (normalized occupancy) was 0.082.

As to GCAGTGCA, the binding signal (normalized occupancy) came to 0.0743. Then CGGCGTTC, with 0.0691. The result for ACTGTGTA reads 0.0737. Then CTGTGCAC, with 0.0869. On to ACCTCGTC, for which the binding signal (normalized occupancy) was 0.0738. Then GGATGTGA, with 0.0786; and CGTACAGA, with 0.0703. Then ACCTGCTC, with 0.0763; and GCAGCGCC, with 0.0702; and TTCAAGAA, with 0.0738. The result for AAAAGGCC reads 0.0652; that for AGTCCTTG, 0.0719; that for TACCCCCA, 0.0917. As to CTGTACTA, the binding signal (normalized occupancy) is 0.0743. The result for TAGTCTAA reads 0.0749; that for ACCGGTCG, 0.0701. Take CGTACGAC: the binding signal (normalized occupancy) worked out at 0.0758.

In the case of CCGGTCCG, the binding signal (normalized occupancy) was determined as 0.0645.

As to ACCTATTC, the binding signal (normalized occupancy) came to 0.0738. Consider CGGTCACG, for which the binding signal (normalized occupancy) was found to be 0.0822.

On to ACCGGAGT, for which the binding signal (normalized occupancy) amounted to 0.0676. The result for GCGGCTCA reads 0.0719. The result for ATGGAAAG reads 0.0787; that for GCGTCTCC, 0.0713. In the case of CACTCAGC, the binding signal (normalized occupancy) came to 0.069.

For AGTATTCG, the binding signal (normalized occupancy) was 0.0769. The result for TCGTTACA reads 0.0782.

As for AACGCAAA, the binding signal (normalized occupancy) came out at 0.0698.

On to GCCAATAA, for which the binding signal (normalized occupancy) was determined as 0.0762. Then GAGGAATC, with 0.0767; and GGATAATA, with 0.082. The result for CGGCCTTA reads 0.0665.

Take CGGGACGA: the binding signal (normalized occupancy) amounted to 0.0655. The result for GCACTAGC reads 0.0686; that for AAAGCTAG, 0.0701; that for CAAGAGAC, 0.0711. Then ATCATGGC, with 0.0863; and CCCCCTAG, with 0.0726.

With TATCCCCA, the binding signal (normalized occupancy) worked out at 0.081. On to GCTCAGTA, for which the binding signal (normalized occupancy) amounted to 0.0736. Regarding TAAACCTA, the binding signal (normalized occupancy) turned out to be 0.0748.

Consider GATCTCTA, for which the binding signal (normalized occupancy) was 0.0742. The result for CTTAGGCC reads 0.0686; that for CACATAGA, 0.0825. Then AGTGGTCC, with 0.0686; and AAGGCTGA, with 0.067; and CGTACCAA, with 0.0777. Regarding ACTAAAGT, the binding signal (normalized occupancy) came to 0.069.

On to AGTGTCTC, for which the binding signal (normalized occupancy) came out at 0.0724. Then CGCCAGAA, with 0.0697; and ACCGATCG, with 0.0717; and GCACGCAC, with 0.0902. Take CAGGATTA: the binding signal (normalized occupancy) amounted to 0.0732. Then AATTTGGA, with 0.0778; and ACTGAGCT, with 0.069. As for CCGAACGA, the binding signal (normalized occupancy) came to 0.0694. Then GAGCCGCC, with 0.0686. In the case of TAATGAGA, the binding signal (normalized occupancy) worked out at 0.0781. The result for ACGCGTTG reads 0.0902. Then GGATGCGA, with 0.0783. Then ACGCATTC, with 0.0764; and ACAATTGG, with 0.0749; and CTACCAGA, with 0.0766. On to CACCACCG, for which the binding signal (normalized occupancy) was found to be 0.074. The result for GAGATTAA reads 0.0724. As for CGAAACAG, the binding signal (normalized occupancy) was 0.0732. Regarding GCGACTCC, the binding signal (normalized occupancy) worked out at 0.0707. Regarding GTCCATGA, the binding signal (normalized occupancy) is 0.0836.

Regarding ATGGGGAC, the binding signal (normalized occupancy) came to 0.082.

As to ATTTGCTC, the binding signal (normalized occupancy) is 0.0746. Then ATAGCCAG, with 0.0717; and ACCCACTA, with 0.085. Then ACGTCGGC, with 0.0779.

Regarding CTAGGATC, the binding signal (normalized occupancy) turned out to be 0.0757.

Regarding GCGCGACC, the binding signal (normalized occupancy) came out at 0.0739.

On to ACAGGAGG, for which the binding signal (normalized occupancy) is 0.0737. Then CGAACCGA, with 0.0672; and CATTGAAC, with 0.0813; and GTTGTGGA, with 0.079. The result for ACGACTAC reads 0.076.
